The record followed here is patent publication US20030203451A1 (Genentech, published 2003).

This assay deals with T1, recombinant IL-17 (baculovirus, Examples 33/34) (human).
T1 construct: also called soluble IL-17; immobilized IL-17
As to the kind of experiment: SPR (BIAcore 1000), IL-17 immobilized on CM5 chip, IL-17R ECD in solution, 1:1 model.

B1: IL-17R extracellular domain ([…]), baculovirus, Examples 33/34 (receptor)
chain: not shown
notes: range […]; also called IL-17R ECD
Consider B1, for which the equilibrium dissociation constant (Kd) (commonly a measure of binding affinity in units of concentration) came out at 72 nM, the off-rate (koff) (commonly a measure of how fast the partners let go of each other) was 0.00067 s⁻¹ and the association rate constant (kon) (commonly a measure of how fast the partners come together) is 9300 M⁻¹ s⁻¹.
